The record followed here is patent US20050048528A1 (WALTER AND ELIZA HALL INSTITUTE OF MEDICAL RESEARCH, published 2005).

The assay concerns the target T1, HA-tagged BRCA1 SZ fragment (residues 1528-1863) (human, UniProt P38398 1528-1863, 35S-methionine-labeled in the in vitro binding assay).
T1 construct: also called BRCT (SZ) region
Briefly: in vitro binding of 35S-labeled BRCA1-SZ to GST on glutathione sepharose, SDS-PAGE. The method, then: Binding assays were carried out with a 10 μl aliquot of […] BRCA1-SZ primed lysate and 100 μl (50% slurry of GST-sepharose beads; Amersham Pharmacia) of GST-LMO4 or GST-only protein in GST interaction buffer (150 mM NaCl, 10 mM Tris pH 8, 0.3% NP-40, 1 mM DTT, 0.25% BSA and 0.5 mM phenylmethylsulfonyl fluoride) for 2 hours at 4° C. The beads were subsequently washed twice in GST interaction buffer containing BSA, followed by two more washes in GST interaction buffer without BSA. Finally, the bound BRCA1 C-terminal polypeptide was eluted by boiling the beads for 5 min in 30 μl loading buffer and analysed by SDS-PAGE.
This region encompasses two tandem BRCT motifs that are required for BRCA1 function in the suppression of tumorigenesis (Yu, X., Wu, L. C., Bowcock, A. M., Aronheim, A., and Baer, R. (1998) J Biol Chem 273(39), 25388-92;Wong, A. K., Ormonde, P. A., Pero, R., Chen, Y., Lian, L., Salada, G., Berry, S., Lawrence, Q., Dayananth, P., Ha, P., Tavtigian, S. V., Teng, D. H., and Bartel, P. L. (1998) Oncogene 17(18), 2279-85;Li, S., Chen, P. L., Subramanian, T., Chinnadurai, G., Tomlinson, G., Osborne, C. K., Sharp, Z. D., and Lee, W. H. (1999) J Biol Chem 274(16), 11334-8). We confirmed the association between LMO4 and BRCA1 using an in vitro binding assay.

B1: GST alone (other)
chain: not shown
notes: also called GST-only protein
As for B1, the binding result was “no binding”.
